Residue numbers refer to the chain shown, from its start.
T1: human Nectin-4 (Homo sapiens, UniProt Q96NY8)
T1 construct: His tag; purchased Acro Biosystems NE4-H52H3
T1 sequence (Q96NY8 32-510): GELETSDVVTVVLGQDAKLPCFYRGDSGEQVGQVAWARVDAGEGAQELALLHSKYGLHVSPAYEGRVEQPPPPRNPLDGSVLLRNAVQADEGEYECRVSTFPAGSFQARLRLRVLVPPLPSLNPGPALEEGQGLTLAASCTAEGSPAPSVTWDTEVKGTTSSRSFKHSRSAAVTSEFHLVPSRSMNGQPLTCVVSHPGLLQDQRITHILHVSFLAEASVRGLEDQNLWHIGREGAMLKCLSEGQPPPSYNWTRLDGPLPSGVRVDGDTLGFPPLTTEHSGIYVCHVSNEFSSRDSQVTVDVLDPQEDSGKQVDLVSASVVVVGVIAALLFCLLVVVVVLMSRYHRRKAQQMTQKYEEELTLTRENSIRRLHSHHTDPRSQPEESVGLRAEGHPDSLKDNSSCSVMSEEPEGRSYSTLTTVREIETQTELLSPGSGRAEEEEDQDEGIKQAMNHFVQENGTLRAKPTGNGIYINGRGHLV

B1: Ab8 (conjugate)
heavy: QVQLVQSGAEVKKPGASVKVSCKASGYTFTSYYIHWVRQAPGQGLEWMGIINPISGRTSSAQKFQGRVTMTRDTSTSTVYMELSSLRSEDTAVYYCAKEGVGGELLRAFDIWGQGTLVTVSSASTKGPSVFPLAPSSKSTSGGTAALGCLVKDYFPEPVTVSWNSGALTSGVHTFPAVLQSSGLYSLSSVVTVPSSSLGTQTYICNVNHKPSNTKVDKRVEPKSCDKTHTCPPCPAPEAAGGPSVFLFPPKPKDTLMISRTPEVTCVVVSVSHEDPEVKFNWYVDGVEVHNAKTKPREEQYNSTYRVVSVLTVLHQDWLNGKEYKCKVSNKALPAPIEKTISKAKGQPREPQVYTLPPSREEMTKNQVSLTCLVKGFYPSDIAVEWESNGQPENNYKTTPPVLDSDGSFFLYSKLTVDKSRWQQGNVFSCSVMHEALHNHYTQKSLSLSPGK
light: QSVLTQPPSVSEAPRQRVTISCSGSSSNIGNNAVNWYQQLPGKAPKLLIYYDDLLPSGVSDRFSGSKSGTSASLAISGLQSEDEADYYCAAWDDSLNGFVFGGGTKLTVLGQPKAAPSVTLFPPSSEELQANKATLVCLISDFYPGAVTVAWKADSSPVKAGVETTTPSKQSNNKYAASSYLSLTPEQWKSHRSYSCQVTHEGSTVEKTVAPTECS
B2: Ab7 ADC: Ab7 conjugated as in Formula XI, and with a DAR of 8 (conjugate)
heavy: QVQLVQSGAEVKKPGASVKVSCKASGYTFTNYYMHWVRQAPGQGLEWMGIINPSSGSASYAQKFQGRVTMTRDTSTSTVYMELSSLRSEDTAVYYCAREGVGRDILQAFDIWGQGTLVTVSSASTKGPSVFPLAPSSKSTSGGTAALGCLVKDYFPEPVTVSWNSGALTSGVHTFPAVLQSSGLYSLSSVVTVPSSSLGTQTYICNVNHKPSNTKVDKRVEPKSCDKTHTCPPCPAPEAAGGPSVFLFPPKPKDTLMISRTPEVTCVVVSVSHEDPEVKFNWYVDGVEVHNAKTKPREEQYNSTYRVVSVLTVLHQDWLNGKEYKCKVSNKALPAPIEKTISKAKGQPREPQVYTLPPSREEMTKNQVSLTCLVKGFYPSDIAVEWESNGQPENNYKTTPPVLDSDGSFFLYSKLTVDKSRWQQGNVFSCSVMHEALHNHYTQKSLSLSPGK
light: B1 light with F99H
B3: Ab8 ADC: Ab8 conjugated as in Formula XI, and with a DAR of 8 (conjugate)
heavy: B1 heavy
light: B1 light

What was measured:
rat Nectin-4 = assay: Surface plasmon resonance (Biacore 8K+) binding of nectin-4 ADCs to rat Nectin-4; conditions: rat Nectin-4, 37° C., ADC Formula XI DAR 8, n=1
Procedure: (§1) An anti-human Fc sensor surface was prepared by amine-coupling of goat anti-human IgG Fc (Southern Biotech Cat. No. 2014-01, Birmingham, AL) to a Biacore Series S CM4 (Cytiva Cat. No. BR-100534) sensor surface at 25° C. For immobilization, a running buffer of 10 mM HEPES, 150 mM NaCl, 0.05% Tween-20, pH 7.4 was used. Flow cells 1 & 2 of all 8 channels were activated with a 1:1 (v/v) mixture of 400 mM 1-Ethyl-3-(3-dimethylaminopropyl) carbodiimide hydrochloride (EDC) and […] N-Hydroxysuccinimide (NHS) at a flow rate of 10 uL/min for 7 minutes. Then the anti-human IgG Fc capture reagent was coupled to the sensor surface (diluted to 50 μg/mL in 10 mM Acetate pH 4.5 buffer) by injecting it in all flow cells and channels at a flow rate of 10 uL/min for 7 minutes. Remaining active groups were blocked by injecting 100 mM ethylenediamine (in 200 mM Borate buffer, pH 8.5) in all flow cells and channels at a flow rate of 10 uL/min for 7 minutes. All channels and flow cells were then preconditioned using three consecutive 1-minute injections of 75 mM phosphoric acid at 10 uL/min.
(§2) In each analysis cycle, a different ADC was captured on flow cell 2 of each channel by injecting it at 5 μg/mL and 10 uL/min. After capture, the same analyte was injected on flow cells 1 and 2 in all 8 channels for 2 minutes at 30 uL/n and dissociation was monitored for 10 minutes. After dissociation, all surfaces were regenerated with three 1-minute injections of 5 mM phosphoric acid at 10 uL/min. ADC capture and analyte cycles were repeated to obtain analyte binding of each ADC at concentrations of 0, 2.5, 7.4, 22, 67, 200 and 600 nM nectin-4.
(§3) Sensorgram data were fit globally with the default 1:1 binding model in Biacore Insight Evaluation Software v3.0.12.15655.

human Nectin-4 = target: T1, human Nectin-4; assay: Surface plasmon resonance (Biacore 8K+) binding of nectin-4 ADCs to human Nectin-4; conditions: human Nectin-4, 37° C., ADC Formula XI DAR 8; n=3 mean ± SD, n=2 replicate values
Procedure: as §1, §2, §3

[1] = tested on: T24 mScarlet clone 5 Nectin-4 negative cells; assay: Bystander killing of T24-mScarlet clone 5 cells co-cultured with T24-human nectin4 clone108 (imaging); assay type: cell-based; conditions: T24-mScarlet clone5 : T24-human nectin4 clone108 9:1, 5 days, ADC Formula XI DAR 8; read-out: IC50 of bystander effect
Procedure: T24 cell line was engineered to express mScarlet and clonally selected to test in bystander assay. T24-mScarlet clone5 and T24-human nectin4 clone108 were mixed and seeded at a total of 1000 cells/well/100 ul with a ratio of 9:1 in culture medium (McCoy's 5A+1× GlutaMax+10% Heat Inactivated Fetal Bovine Serum+400 μg/ml G418) in flat clear bottom 96-well plates. T24 mScarlet clone 5 cells were negative for nectin-4 expression. Plates were incubated at 37° C. with 5% CO2 overnight. Next day, ADCs were added at final working concentration from 50 nM, 1:4 serially diluted in culture medium. Plates were covered with Breathe-Easy® sealing membrane, placed in BioSpa and scanned in Cytation5 every day for 5 days.
Images of T24-mScarlet cells were captured and analyzed by Cytation5 with Gen5 Image Prime 3.11. Percentage of T24-mScarlet cell killing was calculated by decreased Integrated Intensity (area×mean intensity), normalized to zero hour and no treatment. Data was graphed and analyzed using GraphPad Prism version 9.5.1. IC50 was determined via log(inhibitor) vs. response-variable slope (four parameters) curve fitting.

cyno Nectin-4 = assay: Surface plasmon resonance (Biacore 8K+) binding of nectin-4 ADCs to cyno Nectin-4; conditions: cyno Nectin-4, 37° C., ADC Formula XI DAR 8, n=1
Procedure: as §1, §2, §3

MDA-MB-468 xenograft = assay: Tumor xenograft, moderate nectin-4 expression; assay type: in vivo, NSG mice; conditions: MDAMB468 xenograft, single dose 2 mg/kg, day 71
Procedure: In a separate study, female NSG mice between 5-6 weeks of age were injected subcutaneously with MDA-MB-468 cells with moderate Nectin-4 expression. When tumors reached approximately 150-250 mm^3; animals were matched by tumor volume into treatment or control groups and dosing initiated (Day 0, n=8 per group). The test articles were given at a single dose (2 mg/kg) formulated with 5% Dextrose. Tumors were measured biweekly until Day 71.
In both models, a 2 mg/kg single dose treatment of either the nectin-4 ADCs (exemplified herein with each of Abs1-8 conjugated as in Formula XI, and with a DAR of 8) or benchmark enfortumab ADC (enfortumab conjugated with Formula XI, and with a DAR of 8) was used. Tumor growth was measured at day 40 for UMUC3 Nectin-4 clone F7 and day 71 for MDAMB468 xenografts.

[2] = tested on: UM-UC-3 Nectin4 clone F7 xenograft; assay: Tumor xenograft, high nectin-4 expression; assay type: in vivo, mice (nu/nu); conditions: UMUC3 Nectin-4 clone F7 xenograft, single dose 2 mg/kg, day 40
Procedure: In order to test the efficacy of the nectin-4 ADCs of the present disclosure, which have effector null mutations in the Fc region, and to compare to the enfortumab antibody, which has wildtype Fc and in an ADC with the same payload background as the ones of this disclosure, two tumor xenograft models with either high or moderate nectin-4 expression were tested as described. Immune compromised female mice (nu/nu) between 5-8 weeks of age with weight 18-20 grams were implanted unilaterally on the right flank with UM-UC-3 Nectin4 clone F7 cells with high nectin-4 expression. […] The test articles were given at a single dose (2 mg/kg) formulated with 5% dextrose. Tumors were measured biweekly until Day 40.

Row | Molecule | ka (rat Nectin-4) [M⁻¹ s⁻¹] | kd (rat Nectin-4) [s⁻¹] | ka (human Nectin-4) | kd (human Nectin-4) | IC50 [1] [nM] | ka (cyno Nectin-4) [M⁻¹ s⁻¹] | kd (cyno Nectin-4) [s⁻¹] | Mean tumor volume (MDA-MB-468 xenograft) [mm^3] | Mean tumor volume [2] [mm^3]
1 | B1 | 482000 | 0.0165 | (6.94 ± 1.14) × 10^5 1/Ms | (3.38 ± 0.75) × 10^−2 1/s | 0.0694 | 1.25e+06 | 0.0524 | – | –
2 | B2 | – | – | – | – | – | – | – | 245.33 | 319.79
3 | B3 | – | – | – | – | – | – | – | 349.91 | 820.06

From patent US20250000991A1, “NECTIN-4 ANTIBODIES AND ANTIBODY-DRUG CONJUGATES” (Eli Lilly and Company, priority 2023, published 2025)
